Measurements reported in PubChem BioAssay AID1645887 (National Center for Advancing Translational Sciences (NCATS), 2021).
Values joined by “and” are separate entries in the source; they are usually repeats but may differ in a detail not shown here. Equal values may be shown once. About 40 (0.2%) of roughly 16,000 compounds were called active. About 1% were inconclusive and are not listed. The call rests on the fitted dose curve; in most records, active means well fitted activation curve with a large enough effect; inconclusive means small, poorly fitted or top-dose-only effect, or another doubt; inactive means no such curve, though single readings can be large or run the other way. The list shows a part of the results. Positions of bridges follow the written chain, without caps; N, C: chain ends. Residues, ends and D or L forms follow the SMILES beside them.

molecular target: Rap guanine nucleotide exchange factor 4 (Homo sapiens) (UniProt Q8WZA2); test: Validation qHTS for agonist of cAMP-regulated guanine nucleotide exchange factor 4 (EPAC2); details: EPAC2 Rap1B BODIPY-GDP exchange, fluorescence; activation: stronger effect = higher value;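 further: exchange makes BODIPY-GDP fluorescence drop when released from Rap1B; series mostly up to about 150 µM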
How it was run: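 Fluorescent exchange assay: 100 nM EPAC2 with 250 nM RAP1B-BODIPY-GDP and 50 uM GDP; compound added, 5 min at room temperature, then read (ex 480/em 540 nm) every 5 min for 30 min. Normalized to 6.5 mM cAMP agonist control.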
On the % scale 0 is the no-effect control and ±100 the full control effect.

UniProt Q8WZA2, sequence (Q8WZA2 whole entry, looked up): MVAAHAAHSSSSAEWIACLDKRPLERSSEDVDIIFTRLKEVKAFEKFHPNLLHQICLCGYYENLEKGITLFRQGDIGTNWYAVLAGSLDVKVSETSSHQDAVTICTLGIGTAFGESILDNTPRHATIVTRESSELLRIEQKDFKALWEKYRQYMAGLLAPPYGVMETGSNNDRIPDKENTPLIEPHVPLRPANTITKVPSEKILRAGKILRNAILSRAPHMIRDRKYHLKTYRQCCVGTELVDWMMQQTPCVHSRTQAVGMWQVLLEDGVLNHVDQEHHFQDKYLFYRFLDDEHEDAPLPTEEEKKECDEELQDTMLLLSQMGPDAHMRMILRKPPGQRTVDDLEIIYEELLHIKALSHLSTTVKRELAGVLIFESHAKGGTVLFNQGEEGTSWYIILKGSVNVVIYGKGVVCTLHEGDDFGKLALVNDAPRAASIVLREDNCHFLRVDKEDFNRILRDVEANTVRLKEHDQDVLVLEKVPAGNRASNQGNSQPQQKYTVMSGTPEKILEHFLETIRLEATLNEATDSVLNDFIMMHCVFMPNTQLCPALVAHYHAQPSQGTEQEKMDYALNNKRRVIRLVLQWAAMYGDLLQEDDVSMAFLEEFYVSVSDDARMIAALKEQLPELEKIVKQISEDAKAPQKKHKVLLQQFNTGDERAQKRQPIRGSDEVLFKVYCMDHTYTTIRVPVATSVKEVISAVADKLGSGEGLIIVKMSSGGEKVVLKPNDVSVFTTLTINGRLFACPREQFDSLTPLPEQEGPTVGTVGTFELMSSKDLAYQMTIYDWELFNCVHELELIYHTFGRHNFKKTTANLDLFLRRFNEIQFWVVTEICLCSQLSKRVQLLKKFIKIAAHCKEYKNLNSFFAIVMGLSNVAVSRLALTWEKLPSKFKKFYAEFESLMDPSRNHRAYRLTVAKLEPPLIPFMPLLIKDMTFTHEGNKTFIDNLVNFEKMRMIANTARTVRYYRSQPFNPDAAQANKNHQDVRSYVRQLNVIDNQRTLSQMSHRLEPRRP

activation, inactive:
NC(=O)C1CCCN(Cc2ccc3c(c2)CN(Cc2ccccc2)CCO3)C1 (centres undefined) 2.94%, COc1ccc(NC(=O)N2CC[C@@]3(CCCN(C(=O)c4c(C)noc4C)C3)C2)cc1 -11.1%, CC(=O)c1ccc(F)c(-c2cc(C)cc3c2OC(CNC(=O)Cn2nc(C)nc2C)C3)c1 (centres undefined) -10.9%, COCCCNC(=O)c1cnn(-c2ncc3c(n2)-c2ccccc2CCC3)c1C 5.39%, CC(C)COCC(CN(Cc1ccccc1)c1ccccc1)N1CCCC1 (centres undefined) -4.77% [middle of 4 runs], O=C(Oc1ccccc1)N1CCC[C@@]2(CCN(c3ccccn3)C2)C1 -8.43%, CC1=CC2C(C(C)C)CCC(C)(O)C2CC1 (centres undefined) -15.2%, CS(=O)(=O)c1ccc([C@@H](O)[C@@H](COC(=O)CN)NC(=O)C(Cl)Cl)cc1 9.1%, COC(=O)[C@H]1[C@H]2C[C@@H]3c4[nH]c5cc(OC)ccc5c4CCN3C[C@H]2C[C@@H](OC(=O)COc2ccc(OC)cc2)[C@@H]1OC 8.61%, c1ccc2c(N3CCNCC3)nc(-c3ccoc3)nc2c1 -4.06%, NC(C(=O)O)c1ccc(P(=O)(O)O)cc1 (centres undefined) 2.91%, Cc1ccc(CN2CCC(=O)N(Cc3ccccn3)CC2)c(C)c1 -19.1%, Cn1c(=O)c2[nH]c(C3CCCC3)nc2n(C)c1=O -15.1% and -4.01% and -37.7%, COc1ccc(C(=O)N2CCC[C@@]3(CCN(Cc4ccc(C#N)cc4)C3)C2)cc1 2.96%, CCCN1CCC(=O)N([C@H](CSc2ccccc2)CC(C)C)CC1 -38.6%, Cc1cccc(CNc2nc(-c3c(C)noc3C)nc3ccccc23)c1 -5.93%, CC1=C(/C=C/C(C)=C/C=C/C(C)=C/C(=O)Oc2c(C)c(C)c3c(c2C)CC[C@@](C)(CCC[C@H](C)CCC[C@H](C)CCCC(C)C)O3)C(C)(C)CCC1 -16.3%, COc1ccc2c(c1)CCC1C2CC[C@@]2(C)C1CC[C@@H]2NCCCCCCN1C(=O)C=CC1=O (some centres undefined) -19%, CN(C)c1ncc2nc(CCc3ccccc3)c(=O)n(C3CC3)c2n1 -8.01%, CC(C)C[C@@H](CO)N1CCN(Cc2cccnc2)CCC1=O -8.52%, Cc1cnc(-n2ncc(C(=O)NCCN3CCOCC3)c2-c2cccs2)nc1-c1ccc(F)cc1 -0.714%, COC1C[C@@H](O[C@@H]2C(C)C(=O)OC(C)C(C)C(O)C(C)C(=O)[C@@]3(CO3)CC(C)C(OC3OC(C)CC(N(C)C)C3O)C2C)OC(C)[C@@H]1O (some centres undefined) -4.88%, Cn1c(=O)c(-c2cccs2)nc2cnc(Oc3ccccc3)nc21 -2.57%, O=C1CCC(c2ccccc2)(C2CCN(Cc3ccccc3)CC2)C(=O)N1 (centres undefined) -20.1% and -3.92%, CNS(=O)(=O)Cc1ccc2[nH]cc(CCN(C)C)c2c1 -28%, O=c1c(O)c(-c2ccc(O)c(O)c2)oc2cc(O)ccc12 -0.0805% and -11.3%, CN(Cc1cnc2ccccn12)C1CCN(c2cccc(NC(=O)c3cccnc3)c2)CC1 6.25%, Cc1nc2cnc(N3CCN(C)CC3)nc2n(C)c1=O -4.01%, Cc1nc(C)n(CC(=O)NCC2Cc3cc(-c4ccsc4)cc(Cl)c3O2)n1 (centres undefined) -10.7%, COc1ccc(C2COc3c(ccc(O)c3OC)C2)c(OC)c1O (centres undefined) -11.2%, COc1cc(=O)n2c(c1C(=O)N(C)Cc1nccs1)CCN(Cc1cccc(F)c1F)CC2 -3.03%, COc1ncc2nc(-c3cn(C)c4ccccc34)c(=O)n(CCC#N)c2n1 -8.41%, COc1ccccc1CC(=N)N1C[C@@H]2C(=O)CCC(c3ccccc3)(c3ccccc3)[C@@H]2C1 -21.5%, CC(C)(N=NC(C)(C)C(=N)N)C(=N)N -6.54%, COc1ccc2[nH]cc(CCNc3ccnc(-c4cccc(NS(C)(=O)=O)c4)n3)c2c1 -10.5%, COc1cc(C(=O)NS(=O)(=O)c2ccccc2C)ccc1Cc1cn(C)c2ccc(NC(=O)OC3CCCC3)cc12 -32.2%, OC[C@H]1O[C@@H](O[C@H]2[C@H](O)[C@@H](O)[C@H](O)O[C@@H]2CO)[C@H](O)[C@@H](O)[C@@H]1O -15.4%, COc1cc(OC)c(OC)cc1CN1CCC(n2cc(C(=O)N3CCCCC3)nn2)CC1 -15.5%, COc1ccc2[nH]cc(CCNc3cc(-c4ccoc4)ncn3)c2c1 -5.66%, CCN[C@@H]1C[C@H](N)[C@@H](OC2OC(CN)=CCC2N)[C@H](O)[C@H]1O[C@H]1OC[C@](C)(O)[C@H](NC)[C@H]1O (some centres undefined) 7.14%, Cc1cc(C2CCCCC2)n(O)c(=O)c1 -11.9% and -8.75%, CCS(=O)(=O)Nc1cc(C(=O)N2C[C@@H](C)O[C@@H](C)C2)c2c(c1)nc(-c1ccccc1)n2C 2.73%, CC(=O)N1CCC2(CC1)CCN(C(=O)Nc1cccc(C#N)c1)CC2 -4.43%, C[C@@]12CC[C@@H]3c4ccc(O)cc4C[C@H](CCCCCCCCCS(=O)CCCC(F)(F)C(F)(F)F)[C@H]3[C@@H]1CC[C@@H]2O (some centres undefined) -22.7%, O=C(c1ccnc(-n2cnnn2)c1)N1CCOc2ccc(C(O)CCc3ccccc3)cc2C1 (centres undefined) -4.82%, CCC1(C2CCN(C(=O)c3cccc(F)c3F)CC2)NC(=O)N(CCc2scnc2C)C1=O (centres undefined) 6.74%, O=S(=O)(c1ccccc1)N1CCC2(CC1)CN(c1ccccc1)C2 -3.34%, O=c1c(-c2ccc(F)cc2)nc2cnc(N3CCOCC3)nc2n1CCc1ccccc1 -1.56%, Oc1ccc(/C=C/c2ccc(/C=C/c3ccc(O)cc3)c(Br)c2)cc1 -2.2%, CS(=O)(=O)N1CCC2(CC1)CN(C(=O)Nc1cccc(F)c1)C2 -18.8%, CC1(C)S[C@@H]2C(C(=O)O)NC(=O)N2C1C(=O)O (some centres undefined) -3.68%, Oc1cc2c(c(Cl)c1O)CCNC[C@H]2c1ccccc1 -2.9%, O=C(Nc1ccc(C(=O)Nc2ccc(C(=O)Nc3ccc(S(=O)(=O)O)c4cc(S(=O)(=O)O)cc(S(=O)(=O)O)c34)cc2)cc1)Nc1ccc(C(=O)Nc2ccc(C(=O)Nc3ccc(S(=O)(=O)O)c4cc(S(=O)(=O)O)cc(S(=O)(=O)O)c34)cc2)cc1 -35.4% and -24%, COc1c(O)c2c(=O)cc(OC)c3c4c(OC)cc(=O)c5c(O)c(OC)c(C[C@@H](C)OC(=O)c6ccccc6)c(c(c1C[C@@H](C)OC(=O)Oc1ccc(O)cc1)c23)c54 6.32%, S=C1SCN(Cc2ccccc2)CN1Cc1ccccc1 -7.18%, Cn1cccc1C(=O)N1CCC2(CC1)CCN(c1ccccc1)CC2 -6.03%, CC(=O)c1ccc(F)c(-c2cc(C)cc3c2OC(CNC(=O)c2cccnc2)C3)c1 (centres undefined) 3.26%, N#Cc1cccc(-c2cncnc2NCCc2cnc[nH]2)c1 -13.4%, O=C(O)c1cc2cc(Cl)ccc2[nH]1 -6.92%, COC(=O)C1CCN(Cc2ccc3c(c2)CN(C(=O)c2sc(C)nc2C)CCO3)CC1 -16%, C[C@H]1CCC(=O)N([C@H](CN=[N+]=[N-])Cc2ccccc2)CC1 -10.3%, COCC(=O)N1CCC2(CC1)CCN(c1ccccn1)CC2 -18.7%, COc1ccccc1CN1CC2(CCN(C(=O)c3cnccn3)CC2)C1 -16.6%, O=C(CCCN1CCN(c2ccc(F)cc2)CC1)NC1c2ccccc2CSc2ccccc21 (centres undefined) -5.59%, Cc1cccc2cc(CN(C(=O)c3ccc(N4CCCCC4)cc3)C3CC3)c(N3CCC(O)CC3)nc12 1.62%, COc1ccc2ccc(=O)oc2c1 -10.1%, OC[C@H]1O[C@@H]2O[C@H]3[C@H](O)[C@@H](O)[C@@H](O[C@H]4[C@H](O)[C@@H](O)[C@@H](O[C@H]5[C@H](O)[C@@H](O)[C@@H](O[C@H]6[C@H](O)[C@@H](O)[C@@H](O[C@H]7[C@H](O)[C@@H](O)[C@@H](O[C@H]1[C@H](O)[C@H]2O)O[C@@H]7CO)O[C@@H]6CO)O[C@@H]5CO)O[C@@H]4CO)O[C@@H]3CO -3.13%, NCCCC[C@H](NC(=O)[C@@H]1CCCN1C(=O)[C@@H]1CSSC[C@H](NC(=O)CNC(=O)CNC(=O)CN)C(=O)N[C@@H](Cc2ccc(O)cc2)C(=O)N[C@@H](Cc2ccccc2)C(=O)N[C@@H](CCC(N)=O)C(=O)N[C@@H](CC(N)=O)C(=O)N1)C(=O)NCC(N)=O (H-GGGCYFQNCPKG-NH2; disulfide 4-9) -2.01%, CCOC(=O)[C@@H](N)CS 9.62%, Oc1ccc(Cl)cc1Cc1cc(Cl)ccc1O -25.9% and 23.4%, NS(=O)(=O)c1cc(C(=O)O)c(NCc2ccco2)cc1Cl -18.7% and 20.7%, CCc1ccc(S(=O)(=O)O)cc1 -0.278%, COCCn1c(=O)c(C)nc2cnc(N3CCN(C)CC3)nc21 -5.44%, CCCCC/C=C\CC(O)/C=C/c1cccc(CC(O)CCCCO)n1 (centres undefined) -72.1%
